{
  "source": "paper PMC4336329",
  "about": "(PLoS ONE, 2015)",
  "note": "Out of some 310,000 compounds screened, about 2,200 (0.71%) showed an effect of 50% or more. Effects have a minus sign here. Some of the results follow.",
  "data": [
    {"molecular_target": "human ether-à-go-go-related gene (hERG) potassium channel (human, UniProt Q12809)", "sequence (Q12809 whole entry, looked up)": "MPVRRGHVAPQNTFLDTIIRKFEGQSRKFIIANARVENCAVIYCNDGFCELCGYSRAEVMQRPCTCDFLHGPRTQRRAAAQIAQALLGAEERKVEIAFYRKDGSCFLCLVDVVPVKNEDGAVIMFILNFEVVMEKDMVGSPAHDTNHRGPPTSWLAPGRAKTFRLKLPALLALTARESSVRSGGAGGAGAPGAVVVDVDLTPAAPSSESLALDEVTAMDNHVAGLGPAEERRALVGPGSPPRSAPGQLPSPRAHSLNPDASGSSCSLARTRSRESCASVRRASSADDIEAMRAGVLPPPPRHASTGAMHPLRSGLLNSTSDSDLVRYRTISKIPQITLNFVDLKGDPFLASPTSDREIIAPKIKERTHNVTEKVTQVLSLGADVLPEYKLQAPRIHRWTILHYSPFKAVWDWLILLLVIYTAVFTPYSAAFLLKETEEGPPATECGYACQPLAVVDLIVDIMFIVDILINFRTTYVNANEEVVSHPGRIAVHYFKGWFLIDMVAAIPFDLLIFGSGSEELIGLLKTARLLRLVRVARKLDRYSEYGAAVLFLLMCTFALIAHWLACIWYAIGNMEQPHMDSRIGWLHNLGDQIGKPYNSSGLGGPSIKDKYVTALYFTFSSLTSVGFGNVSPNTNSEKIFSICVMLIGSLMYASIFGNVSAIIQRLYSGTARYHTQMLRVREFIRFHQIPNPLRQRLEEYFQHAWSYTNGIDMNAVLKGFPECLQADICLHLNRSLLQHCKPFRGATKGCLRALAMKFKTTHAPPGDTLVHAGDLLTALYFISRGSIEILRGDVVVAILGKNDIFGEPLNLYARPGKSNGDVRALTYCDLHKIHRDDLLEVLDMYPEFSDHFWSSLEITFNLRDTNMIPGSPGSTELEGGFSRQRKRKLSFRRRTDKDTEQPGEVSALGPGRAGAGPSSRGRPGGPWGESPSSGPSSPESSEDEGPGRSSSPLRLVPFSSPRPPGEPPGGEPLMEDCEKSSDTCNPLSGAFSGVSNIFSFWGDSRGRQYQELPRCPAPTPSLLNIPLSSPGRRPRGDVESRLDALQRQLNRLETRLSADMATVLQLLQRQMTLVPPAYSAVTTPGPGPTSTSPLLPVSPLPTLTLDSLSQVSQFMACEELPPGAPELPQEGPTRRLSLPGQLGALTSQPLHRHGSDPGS", "test": "primary screen, population patch clamp on CHO cells stably expressing hERG", "units": {"hERG current change (%, negative = inhibition) at 1uM": "%"}, "values": [
      {"compound": "O=C1CN=C(c2cccs2)c2c(sc3c2CCCC3)N1", "hERG current change (%, negative = inhibition) at 1uM": -5.51},
      {"compound": "Cc1ccc2nc(SCC(=O)N3CCCC3)[nH]c2c1", "hERG current change (%, negative = inhibition) at 1uM": 7.88},
      {"compound": "CCC(C)n1nccc1NC(=O)C(C)Cl", "note": "(stereo not drawn)", "hERG current change (%, negative = inhibition) at 1uM": 16.3},
      {"compound": "CC(=O)Nc1ccc(/C=C/c2nc(-c3ccccc3O)n[nH]2)cc1", "hERG current change (%, negative = inhibition) at 1uM": 4.54},
      {"compound": "COc1cccc(C2NC(=O)N(CCCC(=O)O)C(C)=C2C(=O)OCc2ccccc2)c1", "note": "(stereo not drawn)", "hERG current change (%, negative = inhibition) at 1uM": 12},
      {"compound": "O=C(CN1C(=O)COc2ccc(Cl)cc21)NCC1CCCO1", "note": "(stereo not drawn)", "hERG current change (%, negative = inhibition) at 1uM": 13},
      {"compound": "O=C1CSC(=Nc2ccc(F)cc2)N1", "hERG current change (%, negative = inhibition) at 1uM": -0.0698},
      {"compound": "CC(=O)OC(c1nc2ccccc2c(=O)n1C1CC2(OC1=O)c1ccccc1N1C(=O)C(C)(C)N(O)C12)C(C)C", "note": "(stereo not drawn)", "hERG current change (%, negative = inhibition) at 1uM": 6.36},
      {"compound": "Cc1ccc2c(c1)N(CC(=O)N1CCCCC1C)C(=O)CO2", "note": "(stereo not drawn)", "hERG current change (%, negative = inhibition) at 1uM": 12.5},
      {"compound": "COc1cc(/C=C(/C#N)c2nc3ccccc3[nH]2)ccc1Oc1ncccc1[N+](=O)[O-]", "hERG current change (%, negative = inhibition) at 1uM": 11.2},
      {"compound": "Cn1c(N/N=C/c2cccs2)nc2c1c(=O)n(Cc1ccccc1)c(=O)n2C", "hERG current change (%, negative = inhibition) at 1uM": -2.26},
      {"compound": "CCOC(=O)C1=C(N)OC2=C(C(=O)CCC2)C12C(=O)N(C)c1ccccc12", "note": "(stereo not drawn)", "hERG current change (%, negative = inhibition) at 1uM": 11.7},
      {"compound": "CCCCN(C)CCNC(=O)C1CCN(S(=O)(=O)c2cccc3nsnc23)CC1", "hERG current change (%, negative = inhibition) at 1uM": 13},
      {"compound": "COc1ccc(/C=C2/SC(=S)NC2=O)cc1OCc1ccccc1", "hERG current change (%, negative = inhibition) at 1uM": 8.97},
      {"compound": "COc1ccc(C2C(C#N)=C(N)Oc3n[nH]c(C)c32)cc1CSc1ccccn1", "note": "(stereo not drawn)", "hERG current change (%, negative = inhibition) at 1uM": -2.32},
      {"compound": "Cc1nc2ccccc2n1C1CCN(CC(=O)Nc2ccccc2Br)CC1", "hERG current change (%, negative = inhibition) at 1uM": 5.35},
      {"compound": "Cc1cc(C(=O)N/N=C/c2cc(Cl)cc([N+](=O)[O-])c2O)n[nH]1", "hERG current change (%, negative = inhibition) at 1uM": 6.43},
      {"compound": "CCOC(=O)C1CCN(C(=O)c2cc3cc(Br)ccc3oc2=O)CC1", "hERG current change (%, negative = inhibition) at 1uM": 5.14},
      {"compound": "CS(=O)(=O)c1ccc(-c2cc(Br)sc2-c2ccc(F)cc2)cc1", "hERG current change (%, negative = inhibition) at 1uM": 17.2},
      {"compound": "Cc1nn(Cc2ccc(Br)cc2)c(C)c1NC(=O)c1nn(C)cc1Cl", "hERG current change (%, negative = inhibition) at 1uM": 11.4},
      {"compound": "CCOC(=O)c1sc(NNC(=O)c2ccc(F)cc2)nc1C", "hERG current change (%, negative = inhibition) at 1uM": 10.2},
      {"compound": "COc1cccc(NC(=O)N2CCCC2C(=O)Nc2ccc3c(c2)OCO3)c1", "note": "(stereo not drawn)", "hERG current change (%, negative = inhibition) at 1uM": 24.4},
      {"compound": "Cn1cc(CC(=O)NCCCN2CCCC2)c2ccccc21", "hERG current change (%, negative = inhibition) at 1uM": 9.93},
      {"compound": "CSc1ccc(S(=O)(=O)N2CC(=O)Nc3ccccc32)cc1", "hERG current change (%, negative = inhibition) at 1uM": 10.3},
      {"compound": "Cc1ccnc(NS(=O)(=O)c2ccc(NC(=O)c3cc(-c4ccccc4)nc4ccccc34)cc2)n1", "hERG current change (%, negative = inhibition) at 1uM": 12.4},
      {"compound": "Cc1cccc(OCC(=O)NCC(=O)N/N=C/c2ccc([N+](=O)[O-])cc2)c1", "hERG current change (%, negative = inhibition) at 1uM": 4.89},
      {"compound": "COc1ccc(/C(C)=N/NC(=O)CNC(=O)/C=C\\c2ccco2)cc1", "hERG current change (%, negative = inhibition) at 1uM": 8.21},
      {"compound": "CC(/C=C\\c1ccccc1)=C/C(=O)[O-]", "hERG current change (%, negative = inhibition) at 1uM": 11.1},
      {"compound": "Cc1nn(CC(=O)N2CCN(c3ccccc3)CC2)c(=O)c2cccn12", "hERG current change (%, negative = inhibition) at 1uM": 15.1},
      {"compound": "CCc1c(C)nc(SCCOc2ccc(OC)cc2)[nH]c1=O", "hERG current change (%, negative = inhibition) at 1uM": 12.3},
      {"compound": "CCOC(=O)C(C(=O)Nc1ccccn1)C1CCCCC1", "note": "(stereo not drawn)", "hERG current change (%, negative = inhibition) at 1uM": 2.69},
      {"compound": "COC(=O)c1ccccc1NC(=O)c1cccc(NC(=O)c2ccc(Br)o2)c1C", "hERG current change (%, negative = inhibition) at 1uM": 8.2},
      {"compound": "Cc1nc(CN(C)C(=O)C2CCC(=O)N(CCc3cccc(F)c3)C2)cs1", "note": "(stereo not drawn)", "hERG current change (%, negative = inhibition) at 1uM": 6.16},
      {"compound": "CSc1ncc(OCc2ccccc2)c(=O)[nH]1", "hERG current change (%, negative = inhibition) at 1uM": 12.8},
      {"compound": "Fc1ccc(-n2nnc(-c3cnc4ccccc4c3)n2)cc1", "hERG current change (%, negative = inhibition) at 1uM": 5.7},
      {"compound": "CCOc1ccc(C2=Nn3cnnc3SC2)cc1", "hERG current change (%, negative = inhibition) at 1uM": -6.87},
      {"compound": "CC1CC(C)CN(C(=O)c2cc3cc(Br)cc(Br)c3o2)C1", "note": "(stereo not drawn)", "hERG current change (%, negative = inhibition) at 1uM": 11.6},
      {"compound": "COc1cc(OC)c(OC)cc1/C=N/NC(=S)NCCN1CCOCC1", "hERG current change (%, negative = inhibition) at 1uM": 3.63},
      {"compound": "COc1ccc(C[C@H]2CN3C(=NC[C@H]3C)N2CCNC(=O)CCC2CCCCC2)cc1", "hERG current change (%, negative = inhibition) at 1uM": -51.9},
      {"compound": "Cc1ccn2c(C(=O)c3ccc(Cl)cc3)cnc2c1", "hERG current change (%, negative = inhibition) at 1uM": 12.7},
      {"compound": "CCCCCN(C(=O)CSc1n[nH]c(-c2ccc(C)cc2)n1)c1c(N)n(CCCC)c(=O)[nH]c1=O", "hERG current change (%, negative = inhibition) at 1uM": 15.8},
      {"compound": "C=C(C)Cn1c(CCn2c3ccccc3c3ccccc32)n[nH]c1=S", "hERG current change (%, negative = inhibition) at 1uM": 4.97},
      {"compound": "N#Cc1cccnc1Nc1ccc(Cl)cc1", "hERG current change (%, negative = inhibition) at 1uM": -7.84},
      {"compound": "CC(C)OCCCn1c(SC(C)C(=O)NC2CC2)nc2ccccc2c1=O", "note": "(stereo not drawn)", "hERG current change (%, negative = inhibition) at 1uM": 1.83},
      {"compound": "O=C(CN1CCSCC1)N/N=C/c1ccc(Cl)cc1", "hERG current change (%, negative = inhibition) at 1uM": -0.466},
      {"compound": "O=S(=O)(c1ccccc1)N(F)S(=O)(=O)c1ccccc1", "hERG current change (%, negative = inhibition) at 1uM": -0.313},
      {"compound": "CC1=C(C)CC(C(=O)Nc2ccc3c(c2)OCO3)C(C(=O)O)C1", "note": "(stereo not drawn)", "hERG current change (%, negative = inhibition) at 1uM": 11.8},
      {"compound": "O=C(CC(C(=O)O)c1cccc(Cl)c1Cl)c1ccccc1", "note": "(stereo not drawn)", "hERG current change (%, negative = inhibition) at 1uM": 20.3},
      {"compound": "CC(=O)N1CCc2cc(S(=O)(=O)C(C)CC(=O)NCc3ccc(C)o3)ccc21", "note": "(stereo not drawn)", "hERG current change (%, negative = inhibition) at 1uM": 19},
      {"compound": "CCOc1ccc(OCCC(=O)OCC(=O)Nc2ccc(N3CCOCC3)cc2)cc1", "hERG current change (%, negative = inhibition) at 1uM": 12.9},
      {"compound": "C#Cc1cccc(C(=O)N2CCCC(C(=O)c3ccc(OC)cc3C)C2)c1", "note": "(stereo not drawn)", "hERG current change (%, negative = inhibition) at 1uM": 5.32},
      {"compound": "C=C1CCN([C@@H](CC(C)C)C(=O)N2CCCC2)S(=O)(=O)c2ccccc21", "hERG current change (%, negative = inhibition) at 1uM": -4.55},
      {"compound": "Cc1ccc(NC(=S)NC(=O)c2ccccc2)cc1NC(=S)NC(=O)c1ccccc1", "hERG current change (%, negative = inhibition) at 1uM": 11.3},
      {"compound": "CCc1nnc(NC(=O)CSc2n[nH]c(-c3ccccc3O)n2)s1", "hERG current change (%, negative = inhibition) at 1uM": 4.65},
      {"compound": "O=[N+]([O-])c1ccc(NCCCO)c(S(=O)(=O)N2CCOCC2)c1", "hERG current change (%, negative = inhibition) at 1uM": 2.08},
      {"compound": "Cc1ccc(-n2c3nc(=O)[nH]c(=O)c-3cc3cc([N+](=O)[O-])ccc32)cc1", "hERG current change (%, negative = inhibition) at 1uM": -10.4},
      {"compound": "COc1ccc(CNC(=O)COC(=O)CCOc2ccc(C)cc2)cc1OC", "hERG current change (%, negative = inhibition) at 1uM": 11.9}
    ]}
  ]
}
